The results in this text go back to PubChem BioAssay AID360 (National Center for Advancing Translational Sciences (NCATS), 2006).

In all, about 48,000 compounds went through this assay and about 550 (1.1%) were called active. Not shown: some 4% with an inconclusive outcome. Rule as the data show it: active = potency below about 15 µM; inconclusive = mostly about 16 µM to 33 µM; inactive = weaker than that. The list shows a part of the results. Where only a bound is given, the exact number is not on record here.
Potency is read from the fitted curve at half-maximal effect.

In the assay the target is Lysosomal acid glucosylceramidase (Homo sapiens) (UniProt P04062). Description: Glucocerebrosidase.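 Also: the screen sought inhibitors.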 The conditions noted are these: purified enzyme, resorufin glucoside fluorescence (screen aimed at inhibitors), 20 min. Put shortly: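 Compounds titrated against 0.2 nM normal enzyme, 30 uM resorufin beta-D-glucopyranoside substrate, citrate/phosphate buffer with taurocholate and tween-20, pH 5.9. Reaction ran 20 min at room temperature; fluorescence (Ex 548/Em 600) gave AC50.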
Sequence of UniProt P04062 (P04062 whole entry, looked up): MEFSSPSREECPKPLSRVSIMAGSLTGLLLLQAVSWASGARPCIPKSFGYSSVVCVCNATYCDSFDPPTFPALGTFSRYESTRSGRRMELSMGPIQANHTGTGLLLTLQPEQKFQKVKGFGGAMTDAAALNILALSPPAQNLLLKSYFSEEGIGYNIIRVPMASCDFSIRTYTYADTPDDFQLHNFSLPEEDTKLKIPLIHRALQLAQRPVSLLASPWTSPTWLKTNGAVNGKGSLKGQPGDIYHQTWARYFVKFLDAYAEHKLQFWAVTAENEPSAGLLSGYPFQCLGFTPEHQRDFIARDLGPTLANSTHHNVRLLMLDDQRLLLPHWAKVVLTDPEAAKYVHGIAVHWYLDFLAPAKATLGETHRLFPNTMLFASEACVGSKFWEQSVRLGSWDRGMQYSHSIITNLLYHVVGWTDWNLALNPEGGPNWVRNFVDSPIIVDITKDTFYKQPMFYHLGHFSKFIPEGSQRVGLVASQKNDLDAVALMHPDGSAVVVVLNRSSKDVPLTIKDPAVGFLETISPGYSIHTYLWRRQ
Regarding `COCC(C)NC(=O)CCS(=O)(=O)c1nc(-c2ccc(OC)cc2)cc(C(F)(F)F)n1` (configuration not stated), the Potency was inactive: > 76.9 µM.

Regarding `CCOC(=O)c1cccc(NC(=O)C2CCCN(S(=O)(=O)c3c(C)n[nH]c3C)C2)c1` (configuration not stated), the Potency was inactive: > 76.9 µM.

In the case of `Cc1nc(CSc2nnc3scc(-c4ccccc4)n23)cs1`, the Potency was inactive: > 76.9 µM.

As to `Cc1noc(C)c1S(=O)(=O)N(CC(=O)O)c1ccc2c(c1)OCO2`, the Potency is inactive: > 76.9 µM.

Turning to `O=C(CCCC(=O)N(CC(=O)NC1CCCC1)Cc1ccccc1Cl)Nc1ccccn1`, the Potency was inactive: > 76.9 µM.

Consider `O=C(CS(=O)(=O)Cc1ccccc1)NCc1ccc2c(c1)OCO2`, for which the Potency is inactive: > 76.9 µM.

Turning to `O=C(Oc1ccccc1C(=O)N1CCOCC1)c1ccccc1`, the Potency was inactive: > 76.9 µM.

Regarding `CC(C)(C)c1ccccc1NC(=O)c1ccco1`, the Potency was inactive: > 76.9 µM.

As for `COc1ccc(C(O)P(=O)(O)CCc2ccccc2)cc1` (configuration not stated), the Potency was inactive: > 76.9 µM.

Consider `O=C(O)c1cccc(NC(=O)C2CC(=O)N(Cc3ccccc3)C2)c1` (configuration not stated), for which the Potency was inactive: > 76.9 µM.

On to `CCOc1ccc2cc(S(=O)(=O)N3CCOCC3)ccc2c1`, for which the Potency is inactive: > 76.9 µM.

With `Cc1nnc2sc(-c3ccccn3)nn12`, the Potency is inactive: > 76.9 µM.

Turning to `O=C(NCCCN1CCCCCC1)C1CC(=O)N(CCc2ccccc2)C1` (configuration not stated), the Potency is inactive: > 76.9 µM.

With `CC(C)CN1C(=O)NC(NC(=O)c2ccco2)(C(F)(F)F)C1=O` (configuration not stated), the Potency was inactive: > 76.9 µM.

Regarding `COc1cc(OC)cc(C(C)=O)c1`, the Potency is inactive: > 76.9 µM.

With `COc1cc2[nH]c(=O)n(CCCC(=O)N3CC=C(c4ccccc4)CC3)c(=O)c2cc1OC`, the Potency was inactive: > 76.9 µM.

In the case of `Cn1c(=O)c(C(=O)Nc2ccccn2)c(O)c2ccccc21`, the Potency is inactive: > 76.9 µM.

Consider `COc1cc(NC(=O)C2CCN(S(=O)(=O)c3cccnc3)CC2)cc(OC)c1OC`, for which the Potency is inactive: > 76.9 µM.

As for `N#CCCN1CCN(Cc2cc(-c3ccccc3)ccc2O)CC1`, the Potency result was “inactive”.

Turning to `Cn1c(C(=O)N2COCC2(C)C)cc2c(=O)n3ccccc3nc21`, the Potency is inactive: > 76.9 µM.

For the molecule `COc1ccc(S(=O)(=O)Nc2ccccn2)cc1OC`, the Potency is inactive: > 76.9 µM.

For the molecule `COC(=O)C1=C(C)NC(C)=C(C(=O)OC)C1c1ccc(NC(C)=O)cc1`, the Potency is inactive: > 76.9 µM.

`Cc1cc(N2CCCC2=O)cc(C)c1CN1C(=O)c2ccccc2C1=O`: the Potency is inactive: > 76.9 µM.

Take `O=C(CN1C(=O)C2CC=CCC2C1=O)Nc1nccs1` (configuration not stated): the Potency was inactive: > 76.9 µM.

For the molecule `CC1=C(C)C(=O)N(c2ccccn2)C1=O`, the Potency is inactive: > 76.9 µM.

For the molecule `O=C(CSc1nc(Nc2ccccc2)nc(N2CCOCC2)n1)Nc1ccccc1Cl`, the Potency was inactive: > 76.9 µM.

As to `N#C/C(=C(/O)COC(=O)Cc1c[nH]c2ccccc12)c1nc2ccccc2[nH]1`, the Potency result is “inactive”.

For `Cc1nc2c3c(-c4ccccc4)nc(N4CCOCC4)nc3nn2c(C)c1CCC(=O)O`, the Potency is inactive: > 76.9 µM.

As for `COc1ccc(C(=O)NCc2nnc(SCC(=O)Nc3cccc(C(F)(F)F)c3)o2)cc1OC`, the Potency is inactive: > 76.9 µM.

`O=C(NCC1CCCO1)c1nn2c(c1Cl)NC(c1ccc(F)cc1)CC2C(F)(F)F` (configuration not stated): the Potency was inactive: > 76.9 µM.

`CC(C)c1cc(C(=O)NC2CCCCC2)no1`: the Potency was inactive: > 76.9 µM.

In the case of `CCOc1ccccc1-c1nc(-c2ccc(NC(=O)Cc3ccc(OC)cc3)cc2)no1`, the Potency is inactive: > 76.9 µM.

In the case of `CCOC(=O)c1ccccc1NC(=O)c1cc(S(=O)(=O)N2CCOCC2)ccc1F`, the Potency is inactive: > 76.9 µM.

`CCC(=O)N1CCc2cc(Br)cc(S(=O)(=O)N3CCN(C(=O)c4ccco4)CC3)c21`: the Potency was inactive: > 76.9 µM.

In the case of `Cc1cc(C)nc(N2CCCC(C(=O)NC(C)CCc3ccco3)C2)n1` (configuration not stated), the Potency is inactive: > 76.9 µM.

For `CS(=O)(=O)N(CC(N)=O)c1ccc(F)c(Cl)c1`, the Potency was inactive: > 76.9 µM.

As for `Fc1ccc(C(c2nnnn2Cc2ccco2)N2CCN(C3CCCCC3)CC2)cc1` (configuration not stated), the Potency was inactive: > 76.9 µM.

Take `CCCc1cc(=O)[nH]c(SCC(N)=O)n1`: the Potency was inactive: > 76.9 µM.

On to `COC(=O)CSc1nnc(CNc2ccc(F)cc2)o1`, for which the Potency is inactive: > 76.9 µM.

On to `COc1ccc(N2CCN(Cc3cc(=O)oc4c3ccc3ccccc34)CC2)cc1`, for which the Potency was active: 3.32 µM.

Consider `O=C(c1ccc2c(c1)C(=O)N(Cc1ccco1)C2=O)N1CCOCC1`, for which the Potency is inactive: > 76.9 µM.

`COC(=O)c1noc(-c2ccc(OC)cc2)n1`: the Potency was inactive: > 76.9 µM.

For the molecule `COc1ccccc1N1CCN(c2nc(-c3ccccc3)cc(C(F)(F)F)n2)CC1`, the Potency was inactive: > 76.9 µM.

For `CCn1c(SCC(=O)NC2CCCCC2)nc2c(c1=O)SC(C)C2` (configuration not stated), the Potency is inactive: > 76.9 µM.

Take `CN(C)c1nc(NS(=O)(=O)c2ccc(Cl)cc2)nc(N(C)C)n1`: the Potency is inactive: > 76.9 µM.

As for `CC(C)C(C)(C#N)NC(=O)CSc1nnc(-c2ccncc2)n1Cc1ccccc1` (configuration not stated), the Potency was inactive: > 76.9 µM.

Take `Cc1cc(C)n(-c2nc3c(c(=O)[nH]c(=O)n3C)n2Cc2ccccc2)n1`: the Potency was inactive: > 76.9 µM.

As to `CC(C)(C)n1nnnc1C(c1cccs1)N1CCN(Cc2ccccc2)CC1` (configuration not stated), the Potency is inactive: > 76.9 µM.

On to `COCCCN(C(=O)c1cccnc1SC)c1c(N)n(Cc2ccccc2)c(=O)[nH]c1=O`, for which the Potency is inactive: > 76.9 µM.

As to `CCCc1nnc(NC(=O)C(C)N2C(=O)C3C4C=CC(C4)C3C2=O)s1` (configuration not stated), the Potency is inactive: > 76.9 µM.

In the case of `COC(=O)c1ccccc1NC(=O)COC(=O)CSCC(=O)N1CCOCC1`, the Potency is inactive: > 76.9 µM.

Take `Cc1ccc(-c2ccc(CCC(=O)O)n2Cc2ccco2)cc1`: the Potency is inactive: > 76.9 µM.

With `CCc1ccc(OC(=O)c2ccn(CC)n2)cc1`, the Potency was inactive: > 76.9 µM.

Take `O=C(N1CCOCC1)N1CCN(C(=O)N(c2ccccc2)c2ccccc2)CC1`: the Potency was inactive: > 76.9 µM.

`O=C(Cc1cccs1)Nc1ccc(-c2nnn(CC(=O)N3CCOCC3)n2)cc1`: the Potency was inactive: > 76.9 µM.

As to `COc1ccc(C(C)(C)C)cc1NC(=O)C1C2C=CC(C2)C1C(=O)O` (configuration not stated), the Potency is inactive: > 76.9 µM.

`Cc1ccnc(NC(=O)COC(=O)C2COc3ccccc3O2)n1` (configuration not stated): the Potency is inactive: > 76.9 µM.
